In US5475132A, “Antifungal agents based on amides containing a phenyl group” (Rhone-Poulenc Agrochimie, priority 1988, dated 1995):

Assays:
Plasmopara viticola = test: Example B2: treatment of vine mildew (Plasmopara viticola) on vine cuttings; settings: 192 h, 330 ppm (0.33 g/l), vine cuttings, 8 days after infection, read-out: inhibition of the development of the mould
Description: Treatment of vine mildew (Plasmopara viticola)
Vine (Vitis vinifera) cuttings of the Chardonnay variety are cultivated in pots. When these plants are 2 months old (8 to 10 leaf stage, height 20 to 30 cm) they are treated in the same manner as in Example B1.
After drying for 24 hours, each plant is infected by spraying with an aqueous suspension of spores of Plasmopara viticola which is responsible for vine mildew, at the rate of about 5 ml/plant (that is about 100,000 spores per plant).
After this infection, the vine plants are incubated for two days at about 18° C. in a saturated atmosphere, then for five days at about 20°-22° C. and 90-100% relative humidity.
Eight days after infection, the results obtained in the case of the plants treated with the active material to be tested are compared with those obtained in the case of plants used as controls.

Phytophthora infestans = test: whole plant or invertebrate; settings: in Solanum lycopersicum, 168 h, read-out: inhibition of the development of the mould
Description: Treatment of tomato mildew (Phytophthora infestans)
Tomato (Lycopersicum esculentum) plants, of the Marmande variety, are cultivated in pots. When these plants are a month old (5 to 6 leaf stage, height 12 to 15 cm), they are treated by spraying with a suspension or aqueous solution of the material to be tested, which is at the desired concentration and contains a surfactant which is a condensate of sorbitan monooleate with 20 molecules of ethylene oxide. This surfactant is at a concentration equal to half the concentration of the active material. Each tomato plant receives about 5 ml of the solution or dispersion. The treatment is carried out on two plants for each concentration of active material to be tested. Plants used as controls are treated with a solution which contains no active material, but contains the same surfactant at an identical concentration.
After drying for 24 hours, each plant is infected by spraying with an aqueous suspension of spores of Phytophthora infestans, which is responsible for tomato mildew, at a rate of about 5 ml/plant (that is about 50,000 spores per plant).
After this infection, the tomato plants are incubated for one day at about 15° C. in a saturated atmosphere, then for five days at about 17° C. and 70% to 90% relative humidity.
Seven days after infection, the results obtained in the case of plants treated with the active material to be tested are compared with those obtained in the case of plants used as controls.

| SMILES | inhibition at 330 ppm (Plasmopara viticola) | inhibition at 1000 ppm (Phytophthora infestans) |
| --- | --- | --- |
| C=CCN(C)C(=O)c1ccc(-c2ccc(Cl)cc2)nc1-c1ccc(OC)c(OC)c1 [Compound 386] | ≥ 80% | ≥ 80% |
| COc1ccc(-c2nc(-c3ccc(Cl)cc3)ccc2C(=O)N2CCOCC2)cc1OC [Compound 345] | ≥ 80% | ≥ 80% |
| COc1ccc(-c2c(C(=O)N3CCCC(O)C3)sc3ccccc23)cc1OC (centres unmarked) [Compound 164] | ≥ 80% | ≥ 80% |
| COc1ccc(-c2nc(-c3ccccc3)ccc2C(=O)N(C)CCOC(C)=O)cc1OC [Compound 396] | ≥ 80% | ≥ 80% |
| CCN(CC)C(=O)c1ccc(-c2ccccc2)nc1-c1ccc(OC)c(OC)c1 [Compound 388] | ≥ 80% | ≥ 80% |
| CCN(CC)C(=O)c1ccc(-c2ccsc2)nc1-c1ccc(OC)c(OC)c1 [Compound 3119] | ≥ 80% | ≥ 80% |
| COc1ccc(-c2nc(-c3ccc(Cl)cc3)ncc2C(=O)N2CCOCC2)cc1OC [Compound 407, 2-(4-Chlorophenyl)-4-(3,4-dimethoxyphenyl)-5-morpholinocarbonylpyrimidine] | ≥ 80% | ≥ 80% |
| COCCN(C)C(=O)c1ccc(-c2ccc(F)cc2)nc1-c1ccc(OC)c(OC)c1 [Compound 353] | ≥ 80% | ≥ 80% |
| CCN(CC)C(=O)c1ccc(-c2ccc(Cl)cc2)nc1-c1ccc(OC)c(OC)c1 [Compound 364] | ≥ 80% | ≥ 80% |
| CCN(C)C(=O)c1ccc(-c2ccsc2)nc1-c1ccc(OC)c(OC)c1 [Compound 3118] | ≥ 80% | ≥ 80% |
| COc1ccc(-c2cc(Cl)ccc2C(=O)N2CCOCC2)cc1OC [Compound 208] | ≥ 80% | ≥ 80% |
| COc1ccc(-c2nc(-c3ccccc3)ncc2C(=O)N2CCOCC2)cc1OC [Compound 414] | ≥ 80% | ≥ 80% |
| COc1ccc(-c2cc(Br)ccc2C(=O)N2CCOCC2)cc1OC [Compound 222] | ≥ 80% | ≥ 80% |
| CCN(C)C(=O)c1ccc(-c2ccc(Cl)cc2)nc1-c1ccc(OC)c(OC)c1 [Compound 347] | ≥ 80% | ≥ 80% |
| COc1ccc(-c2nc(Oc3ccccc3C)ncc2C(=O)N2CCOCC2)cc1OC [Compound 440] | ≥ 80% | ≥ 80% |
| COc1ccc(-c2nc(-c3ccc(C#N)cc3)ccc2C(=O)N2CCOCC2)cc1OC [Compound 382] | ≥ 80% | ≥ 80% |
| COc1ccc(-c2c(C(=O)N3CCOCC3)sc3ccc([N+](=O)[O-])cc23)cc1OC [Compound 104, 2-(4-Morpholinocarbonyl)-5-nitro-3-(3,4-dimethoxyphenyl)benzothiophene] | ≥ 80% | ≥ 80% |
| CCN(C)C(=O)c1sc2ccccc2c1-c1ccc(OC)c(OC)c1 [Compound 150] | ≥ 80% | ≥ 80% |
| COc1ccc(-c2c(C(=O)N3CCOCC3)cc(-c3ccc(F)cc3)n2C)cc1OC [Compound 607, 5-(4-fluorophenyl)-2-(3,4-dimethoxyphenyl)-1-methyl-3-(morpholinocarbonyl)pyrrole] | ≥ 80% | ≥ 80% |
| COc1ccc(-c2cc(-c3ccc(Cl)cc3)ccc2C(=O)N2CCOCC2)cc1OC [Compound 237] | ≥ 80% | ≥ 80% |
| COc1ccc(-c2nc(Sc3cccc(Cl)c3)ncc2C(=O)N2CCOCC2)cc1OC [Compound 445] | ≥ 80% | ≥ 80% |
| COc1ccc(C2=C(C(=O)N3CCOCC3)C(O)c3ccccc32)cc1OC (centres unmarked) [Compound 110, 1-(3,4-Dimethoxyphenyl)-2-morpholinocarbonyl-3-hydroxyindene] | ≥ 80% | ≥ 80% |
| COc1ccc(-c2c(C(=O)N3CCOCC3)cc(-c3ccccc3)n2C)cc1OC [Compound 621] | ≥ 80% | ≥ 80% |
| CCN(C)C(=O)c1ccc(-c2ccccc2)nc1-c1ccc(OC)c(OC)c1 [Compound 369] | ≥ 80% | ≥ 80% |
| COc1ccc(-c2nc(Oc3ccc(C)cc3)ncc2C(=O)N2CCOCC2)cc1OC [Compound 433, 4-(3,4-dimethoxyphenyl)-2-(4-methylphenoxy)-5-morpholinocarbonylpyrimidine] | ≥ 80% | ≥ 80% |

| SMILES | inhibition at 330 ppm (Plasmopara viticola) | inhibition at 1000 ppm (Phytophthora infestans) |
| --- | --- | --- |
| COc1ccc(-c2nc(-c3ccccc3)ccc2C(=O)N(C)C)cc1OC [Compound 370] | ≥ 80% | ≥ 80% |
| CCN(C)C(=O)c1ccc(Br)cc1-c1ccc(OC)c(OC)c1 [Compound 206] | ≥ 80% | ≥ 80% |
| CCN(CC)C(=O)c1ccc(Cl)cc1-c1ccc(OC)c(OC)c1 [Compound 211] | ≥ 80% | ≥ 80% |
| COc1ccc(-c2c(C(=O)N3CCOCC3)sc3ccc(C(F)(F)F)cc23)cc1OC [Compound 133] | ≥ 80% | ≥ 80% |
| COc1ccc(-c2cc(-c3ccc(F)cc3)ccc2C(=O)N2CCOCC2)cc1OC [Compound 201, 2-(3,4-Dimethoxyphenyl)-4-(4-fluorophenyl)-1-morpholinocarbonylbenzene] | ≥ 80% | ≥ 80% |
| COc1ccc2c(c1)CC(C(=O)N1CCOCC1)=C2c1ccc(OC)c(OC)c1 [Compound 111, 2-Morpholinocarbonyl-3-(3,,4-dimethoxyphenyl)-6-mehoxyindene] | ≥ 80% | ≥ 80% |
| COc1ccc(-c2nc(-c3ccc(C)cc3)ccc2C(=O)N2CCOCC2)cc1OC [Compound 384] | ≥ 80% | ≥ 80% |
| COc1ccc(-c2nc(-c3ccc(C(C)C)cc3)ccc2C(=O)N2CCOCC2)cc1OC [Compound 356] | ≥ 80% | ≥ 80% |
| COc1ccc(C2=C(C(=O)N3CCOCC3)Cc3cc(OC)c(OC)cc32)cc1OC [Compound 112, 2-Morpholinocarbonyl-3-(3,4-dimethoxyphenyl)-5,6-methoxyindene] | ≥ 80% | ≥ 80% |
| CCN(C)C(=O)c1cnc(-c2ccccc2)nc1-c1ccc(OC)c(OC)c1 [Compound 415] | ≥ 80% | ≥ 80% |
| COc1ccc(-c2nc(SCc3ccccc3)ncc2C(=O)N2CCOCC2)cc1OC [Compound 434] | ≥ 80% | ≥ 80% |
| COc1ccc(-c2nc(N3CCCCC3)ncc2C(=O)N2CCOCC2)cc1OC [Compound 458] | ≥ 80% | ≥ 80% |
| C=CCN(C)C(=O)c1ccc(-c2ccccc2)nc1-c1ccc(OC)c(OC)c1 [Compound 359] | ≥ 80% | ≥ 80% |
| COc1ccc(-c2nc(-c3cccs3)ccc2C(=O)N2CCOCC2)cc1OC [Compound 3113] | ≥ 80% | ≥ 80% |
| CCN(C)C(=O)c1ccc(Cl)cc1-c1ccc(OC)c(OC)c1 [Compound 209] | ≥ 80% | ≥ 80% |
| COc1ccc(C2=C(C(=O)N3CCOCC3)Cc3cc(OC)c(OC)cc32)cc1 [Compound 149] | ≥ 80% | ≥ 80% |
| COc1ccc(-c2cc(-c3ccccc3)nc(C)c2C(=O)N2CCOCC2)cc1OC [Compound 505, N-[4-(3,4-dimethoxyphenyl)-2-methyl-6-phenylnicotinoyl]morpholine] | ≥ 80% | ≥ 80% |
| COc1ccc(-c2cc(C=C(C)C)ccc2C(=O)N2CCOCC2)cc1OC [Compound 235] | ≥ 80% | ≥ 80% |
| COc1ccc(-c2c(C(=O)N3CCOCC3)sc3ccc(Cl)cc23)cc1OC [Compound 113] | ≥ 80% | ≥ 80% |
| COc1ccc(-c2cc(-c3ccccc3)ccc2C(=O)N2CCOCC2)cc1OC [Compound 202] | ≥ 80% | ≥ 80% |
| C=C(C)c1ccc(C(=O)N2CCOCC2)c(-c2ccc(OC)c(OC)c2)c1 [Compound 236] | ≥ 80% | ≥ 80% |
| COc1ccc(-c2nc(SCc3ccc(Cl)cc3)ncc2C(=O)N2CCOCC2)cc1OC [Compound 435] | ≥ 80% | ≥ 80% |
| COc1ccc(-c2nc(-c3ccccc3C)ccc2C(=O)N2CCOCC2)cc1OC [Compound 391] | ≥ 80% | ≥ 80% |
| COCCN(C)C(=O)c1cnc(-c2ccccc2)nc1-c1ccc(OC)c(OC)c1 [Compound 416] | ≥ 80% | ≥ 80% |
